{
  "source": "PubChem BioAssay AID1645882",
  "about": "(National Center for Advancing Translational Sciences (NCATS), 2021)",
  "note": "The whole screen tested about 16,000 compounds, of which about 120 (0.75%) were called active. Another 4% or so got no clear call; they are omitted. Calls follow the shape of the dose curve; as a rule, active = well fitted inhibition curve with a large enough effect; inconclusive = small, poorly fitted or top-dose-only effect; inactive = no such curve, though single readings can be large or run the other way. This is one part of the list. Potency is read from the fitted curve at half-maximal effect.",
  "data": [
    {"molecular_target": "Rap guanine nucleotide exchange factor 3 (Homo sapiens) (UniProt O95398)", "sequence (O95398 whole entry, looked up)": "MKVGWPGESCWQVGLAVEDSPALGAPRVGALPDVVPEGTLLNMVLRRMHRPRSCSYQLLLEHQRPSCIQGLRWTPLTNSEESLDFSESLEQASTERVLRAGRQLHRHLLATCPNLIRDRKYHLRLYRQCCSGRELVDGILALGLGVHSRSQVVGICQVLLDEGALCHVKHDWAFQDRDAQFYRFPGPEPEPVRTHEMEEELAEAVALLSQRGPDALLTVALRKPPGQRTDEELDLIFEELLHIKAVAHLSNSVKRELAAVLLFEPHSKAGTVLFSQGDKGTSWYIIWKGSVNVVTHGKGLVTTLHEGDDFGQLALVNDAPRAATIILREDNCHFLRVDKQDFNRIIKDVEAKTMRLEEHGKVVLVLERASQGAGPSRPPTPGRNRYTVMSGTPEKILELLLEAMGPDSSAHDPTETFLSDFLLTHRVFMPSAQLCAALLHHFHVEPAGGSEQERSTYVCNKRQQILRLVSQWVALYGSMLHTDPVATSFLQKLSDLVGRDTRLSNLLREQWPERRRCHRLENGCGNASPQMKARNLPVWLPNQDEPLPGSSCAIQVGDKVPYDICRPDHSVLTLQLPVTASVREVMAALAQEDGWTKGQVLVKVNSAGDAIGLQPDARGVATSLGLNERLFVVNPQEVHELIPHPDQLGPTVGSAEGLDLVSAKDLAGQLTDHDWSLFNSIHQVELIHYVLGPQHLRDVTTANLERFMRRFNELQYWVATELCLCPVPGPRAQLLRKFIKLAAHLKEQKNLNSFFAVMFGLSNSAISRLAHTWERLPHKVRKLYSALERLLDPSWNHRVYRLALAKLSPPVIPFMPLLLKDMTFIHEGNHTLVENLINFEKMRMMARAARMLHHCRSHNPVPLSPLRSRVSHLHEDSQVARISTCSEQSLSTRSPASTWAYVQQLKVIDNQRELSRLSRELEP", "test": "Validation qHTS for antagonist of cAMP-regulated guanine nucleotide exchange factor 3 (EPAC1); also: nearly all actives have a fitted effect of over 75% in size;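 as to activity change, negative = inhibition: plate controls were DMSO for no effect and ATA control for full effect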", "details": "EPAC1 Rap1B-BODIPY-GDP exchange, fluorescence; series mostly up to 150 µM; activity change, negative = inhibition: at the top concentration", "in_short": "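Nucleotide exchange followed as fluorescence loss when BODIPY-GDP leaves Rap1B (480 nm excitation, 540 nm emission), read at 5 min intervals over 30 min. Reaction: 100 nM EPAC1, 250 nM RAP1B-BODIPY-GDP, 50 uM GDP; ATA and DMSO define normalization.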", "values": [
      {"compound": "CC(=O)NC(=O)c1ccccc1O", "activity change, negative = inhibition": "inactive: 4.91%"},
      {"compound": "COc1c2c(cc3c1C(c1c(O)c4ccccc4oc1=O)N(C)CC3)OCO2", "note": "(stereo not drawn)", "activity change, negative = inhibition": "inactive: -11.8%"},
      {"compound": "C1CCC(C(CC2CCCCN2)C2CCCCC2)CC1", "note": "(stereo not drawn)", "activity change, negative = inhibition": "inactive: 18%"},
      {"compound": "COCCn1c(=O)c(-c2ccc(OC)cc2)nc2cnc(N3CCNCC3)nc21", "activity change, negative = inhibition": "inactive: 12.2%"},
      {"compound": "CC(C)N(c1ccc(C=O)cc1)C(C)C", "activity change, negative = inhibition": "inactive: 5.8%"},
      {"compound": "C[C@@H]1CN(Cc2ccc3c(c2)CN(Cc2cn[nH]c2-c2ccccc2)CCO3)C[C@H](C)O1", "activity change, negative = inhibition": "inactive: 6.18%"},
      {"compound": "O=c1cc(CO)occ1O", "activity change, negative = inhibition": "inactive"},
      {"compound": "CS(=O)(=O)Nc1cccc(-c2cncnc2Nc2ccccc2)c1", "activity change, negative = inhibition": "inactive: 1.21%"},
      {"compound": "COc1cccc(CN2CCC(n3cc(C(=O)NC4CCCC4)nn3)CC2)c1O", "activity change, negative = inhibition": "inactive: 22%"},
      {"compound": "COc1ccccc1CNc1nc(-c2ccc3c(c2)OCO3)nc2ccccc12", "activity change, negative = inhibition": "inactive: -9.28%"},
      {"compound": "CCNc1ncc2ncc(=O)n(Cc3cccs3)c2n1", "activity change, negative = inhibition": "inactive: -7.28%"},
      {"compound": "CC1(C)CC(C(=O)N2CCOc3ccc(CN4CCC(Oc5cccnc5)CC4)cc3C2)CCO1", "note": "(stereo not drawn)", "activity change, negative = inhibition": "inactive: 16.1%"},
      {"compound": "NC1CCN(c2cccc(Cl)n2)CC1", "activity change, negative = inhibition": "inactive"},
      {"compound": "CC1C(=O)N(C)C(=O)c2nc[nH]c21", "note": "(stereo not drawn)", "activity change, negative = inhibition": "inactive: 14% [at 75.8 µM]"},
      {"compound": "CCSc1nnc(C(C)NS(=O)(=O)c2cccc(Cl)c2C)n1C", "note": "(stereo not drawn)", "activity change, negative = inhibition": "inactive: 14.6%"},
      {"compound": "CCCCCCCCCCCCC/C=C/[C@@H](O)[C@H](CO)NCCCCCCCC", "activity change, negative = inhibition": "inactive: 3.05% [at 15.3 µM]"},
      {"compound": "CC1(C)C=Cc2c(cc3occ(-c4ccc5c(c4)OCO5)c(=O)c3c2O)O1", "activity change, negative = inhibition": "inactive: -5.41%"},
      {"compound": "C[N+]1(Cc2ccccc2)CCC(C(=O)OCC2CCCC2)CC1", "note": "(stereo not drawn)", "activity change, negative = inhibition": "inactive: 36.6%"},
      {"compound": "O=C1[C@H]2[C@H](C=CC[C@H]2C(=O)N2CCOCC2)CCN1Cc1ccc(Cl)c(Cl)c1", "activity change, negative = inhibition": "inactive: 8.84%"},
      {"compound": "COc1ccc2c(c1)OC/C(=C/c1ccc(OC)c(OC)c1)C2=O", "activity change, negative = inhibition": "inactive: 4.4%"},
      {"compound": "COc1ccccc1-c1nc(NCc2cccnc2)c2ccccc2n1", "activity change, negative = inhibition": "inactive: 8.57%"},
      {"compound": "O=C(O)CCNC(=O)c1ccc(N=Nc2ccc(O)c(C(=O)O)c2)cc1", "activity change, negative = inhibition": "inactive: 17.6%"},
      {"compound": "O=C(O)CCC(=O)OC[C@@H](NC(=O)C(Cl)Cl)C(O)c1ccc([N+](=O)[O-])cc1", "note": "(stereo partly drawn)", "activity change, negative = inhibition": "inactive: 21.6%"},
      {"compound": "COCc1c(C(=O)N2CCN(C3CCCC3)CC2)cnn1-c1nccc(-c2cc(C)sc2C)n1", "activity change, negative = inhibition": "inactive: -29.7%"},
      {"compound": "COc1cccc2oc(-c3ccccc3)cc(=O)c12", "activity change, negative = inhibition": "inactive: 9.58%"},
      {"compound": "O=CN1CCc2c([nH]c3ccccc23)C1c1cccc2cccnc12", "note": "(stereo not drawn)", "activity change, negative = inhibition": "inactive: -9.31%"},
      {"compound": "CCOC(=O)N1CCN(/[N+]([O-])=N/Oc2ccc([N+](=O)[O-])cc2[N+](=O)[O-])CC1", "activity change, negative = inhibition": "inactive: 1.56% [at 75.8 µM]"},
      {"compound": "COc1cc(C(=O)NCc2ccc(OCCN(C)C)cc2)cc(OC)c1OC", "activity change, negative = inhibition": "inactive"},
      {"compound": "CCCN1CCCC[C@H]1C(=O)Nc1c(C)cccc1C", "activity change, negative = inhibition": "inactive: 22.4%"},
      {"compound": "COc1ccccc1CNc1ccnc(-c2ccccc2C(F)(F)F)n1", "activity change, negative = inhibition": "inactive: -7.02%"},
      {"compound": "COc1cc(NCc2ccc3nc(N)nc(N)c3c2C)cc(OC)c1OC", "activity change, negative = inhibition": "inactive: 15.2%"},
      {"compound": "CSc1ncccc1C(=O)NCCN1Cc2ccccc2OC(c2ccccc2F)C1", "note": "(stereo not drawn)", "activity change, negative = inhibition": "inactive: -10.9%"},
      {"compound": "Cc1ccc(S(=O)(=O)N[C@@H](Cc2ccccc2)C(=O)CCl)cc1", "activity change, negative = inhibition": "inactive: 24.2% [at 75.8 µM]"},
      {"compound": "COc1cccc(-c2ccc3ncnc(NCc4ccccc4OC)c3c2)c1", "activity change, negative = inhibition": "inactive: -20.8%"},
      {"compound": "Cc1cc(C(C)(C)C)c(O)c(C(C)(C)C)c1", "activity change, negative = inhibition": "inactive"},
      {"compound": "COc1ccc(-c2cc(=S)ss2)cc1", "activity change, negative = inhibition": "inactive: 2.77%"},
      {"compound": "COc1ccc(S[C@@H](CCN2CC[C@H](NC(=O)OCc3ccccc3)CCC2=O)c2ccccc2)cc1", "activity change, negative = inhibition": "inactive: -15.2%"},
      {"compound": "CN(C)c1ccc(-c2cncnc2Nc2ccc(F)cc2)cc1", "activity change, negative = inhibition": "inactive: -8.95%"},
      {"compound": "COc1ccc2c(c1)OCC(Cc1ccc(OC)c(O)c1)C2=O", "note": "(stereo not drawn)", "activity change, negative = inhibition": "inactive: 2.17%"},
      {"compound": "CN(CCO)C(=O)c1cn(C2CCN(Cc3c(F)cccc3Cl)CC2)nn1", "activity change, negative = inhibition": "inactive: 18.1%"},
      {"compound": "N[C@@H](C(=O)O)c1ccc(C(=O)O)c(O)c1", "activity change, negative = inhibition": "inactive: -6.82%"},
      {"compound": "CN/C(=C\\[N+](=O)[O-])NCCSCc1ccc(CN(C)C)o1", "activity change, negative = inhibition": "inactive"},
      {"compound": "C=CCSSSCC=C", "activity change, negative = inhibition": "inactive: 22.7%"},
      {"compound": "C/C1=C2N=C(/C=C3N=C(/C(C)=C4\\[N-]C(C(CC(N)=O)C4(C)CCC(=O)NCC(C)OP(=O)([O-])OC4C(CO)OC(n5cnc6cc(C)c(C)cc65)C4O)C4(C)N=C1C(CCC(N)=O)C4(C)CC(N)=O)C(CCC(N)=O)C\\3(C)C)C(CCC(N)=O)C/2(C)CC(N)=O.[CH3-].[Co+3]", "note": "(stereo not drawn)", "Potency": "active: 50.1 µM"},
      {"compound": "O=C(O)[C@@H]1CN[C@@H](C(=O)O)C1", "activity change, negative = inhibition": "inactive: 6.31%"},
      {"compound": "OCCN1CCN(Cc2ccc3c(c2)CN(Cc2cccn2-c2ccccn2)CCO3)CC1", "activity change, negative = inhibition": "inactive: 14.6%"},
      {"compound": "C#CCN[C@@H]1CCc2ccccc21", "activity change, negative = inhibition": "inactive: 8.65%"},
      {"compound": "C[C@](N)(COP(=O)(O)O)C(=O)O", "activity change, negative = inhibition": "inactive: 3.08%"},
      {"compound": "Cn1c(=O)[nH]c2ncn(C)c2c1=O", "activity change, negative = inhibition": "inactive"},
      {"compound": "Cc1nc2cncnc2n(C2CC2)c1=O", "activity change, negative = inhibition": "inactive: 7.75%"},
      {"compound": "COc1ccc2ccccc2c1CN1CCCC(n2cc(C(=O)N3CCCC3)nn2)C1", "note": "(stereo not drawn)", "activity change, negative = inhibition": "inactive: 16.4%"},
      {"compound": "COc1ccccc1CN1CC[C@@]2(CCCN(C(=O)c3cccn3C)C2)C1", "activity change, negative = inhibition": "inactive: 28.1%"},
      {"compound": "CCOc1ccc(NS(=O)(=O)c2ccc(N)cc2)nn1", "activity change, negative = inhibition": "inactive: 16.7%"},
      {"compound": "Cc1c(C(=O)N2CCN(C)CC2)sc2ncnc(NCC3(c4ccccc4)CCOCC3)c12", "activity change, negative = inhibition": "inactive: 2.75%"},
      {"compound": "C[C@@H]1OC(OC2C(OC3CC[C@@]4(C)C5CC=C6C7CC(C)(C)CC[C@@]7(C(=O)O)CCC6(C)C5(C)CCC4[C@]3(C)CO)OCC(O)C2O)C(O)C(O)C1O", "note": "(stereo partly drawn)", "activity change, negative = inhibition": "inactive: 11.2%"},
      {"compound": "Cn1c(=O)cnc2cnc(OCc3ccccc3)nc21", "activity change, negative = inhibition": "inactive: 5.54%"},
      {"compound": "COCCn1c(=O)c(-c2ccc(Cl)cc2)nc2cncnc21", "activity change, negative = inhibition": "inactive: -3.65%"},
      {"compound": "N#C/C(=C\\c1ccc(O)c(O)c1)C(=O)OCCc1cccs1", "Potency": "active: 39.8 µM"},
      {"compound": "COc1ccc2[nH]cc(CCNc3ncnc4ccc(-c5ccccc5CN(C)C)cc34)c2c1", "activity change, negative = inhibition": "inactive: 6.39%"},
      {"compound": "C1COC(NC(C2CC2)C2CC2)=N1", "activity change, negative = inhibition": "inactive"},
      {"compound": "N#Cc1cccc(-c2cc(NCc3cccnc3)ncn2)c1", "activity change, negative = inhibition": "inactive: 7.18%"},
      {"compound": "O=c1cc(-c2ccc(O)cc2O)oc2ccccc12", "activity change, negative = inhibition": "inactive: 13.9%"},
      {"compound": "O=c1c(-c2ccc(Cl)cc2)nc2cncnc2n1Cc1ccc(F)cc1", "activity change, negative = inhibition": "inactive: 15.9%"},
      {"compound": "COc1ccc(F)c(CN2CCC3(CCC(CNC(=O)c4ccn(C)n4)O3)CC2)c1", "note": "(stereo not drawn)", "activity change, negative = inhibition": "inactive: 15%"},
      {"compound": "O=C(CN1Cc2ccccc2OC(c2ccsc2)C1)N1CCC(c2nc3ccccc3[nH]2)CC1", "note": "(stereo not drawn)", "activity change, negative = inhibition": "inactive: -1.79%"},
      {"compound": "OC[C@H]1O[C@@H](n2cnc3c(NC4CCCC4)ncnc32)[C@H](O)[C@@H]1O", "activity change, negative = inhibition": "inactive"},
      {"compound": "COc1ccc(/C=C/C(=O)c2ccc(O)cc2O)cc1", "activity change, negative = inhibition": "inactive: 4.11%"},
      {"compound": "CN1c2cc(O)c(N=NC(N)=O)cc2CC1S(=O)(=O)O", "note": "(stereo not drawn)", "activity change, negative = inhibition": "inactive: 5.06%"}
    ]}
  ]
}
